Source: PubChem BioAssay AID652104 (National Center for Advancing Translational Sciences (NCATS), 2013)
About 7,200 (1.8%) of roughly 410,000 compounds were called active. Inconclusive means that the source gave no clear call. Such entries were picked first, then a sample of the others. The call rests on the fitted dose curve; in most records, active means well fitted activation curve with a large enough effect; inconclusive means small, poorly fitted or top-dose-only effect, or another doubt; inactive means no such curve, though single readings can be large or run the other way. Potencies of inconclusive entries are doubtful fits and often do not repeat.

Test: qHTS of TDP-43 Inhibitors; further: nearly all actives have a fitted effect of over 50% in size; on growth rescue (activation): % of control where 0% means no effect
Conditions: TDP-43 expressing yeast growth rescue, BacTiter-Glo, 24 h; growth rescue (activation): at 46.1 µM (top of the series) unless noted
In short: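 Readout is BacTiter-Glo luminescence of cell growth, so inhibitors register as activators. TDP-43-expressing yeast at OD600=0.02 in galactose medium, after raffinose pregrowth to mid-log, were incubated with compound for 24 hr at 30 deg C.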
Potency means the concentration at half of the fitted maximal effect; tags describe the fitted curve by direction and shape.

| Structure (SMILES) | Potency | growth rescue (activation) |
| --- | --- | --- |
| Cc1ccc(CNC(=O)C2c3ccccc3C(=O)N3CCc4ccccc4C23)o1 (stereo not given) | inactive | – |
| COc1cc(/C=N/Nc2ncnc3sc4c(c23)CCC4)ccc1O | inconclusive: 8.91 µM [activator, partial curve] | – |
| Cc1ccccc1Nc1cc2ccccc2c(=O)[nH]1 | inconclusive: 3.98 µM [activator, partial curve] | – |
| S=C(NCCc1ccc(Cl)cc1)NC1CCCC1 | inactive | – |
| Cc1ccc(NC(=O)CSc2nc3ccccc3c3nc(CCc4c(C)n[nH]c4C)nn23)c(C)c1 | inconclusive: 6.31 µM [activator, partial curve] | – |
| Cc1ccc(-c2nn(-c3ccc(F)cc3F)c3c2cnc2c(F)cccc23)cc1 | inconclusive: 6.31 µM [activator, single point] | – |
| COc1cccc(NC(=O)CSc2ccc(-c3ccco3)nn2)c1 | inconclusive: 10 µM [activator, partial curve] | – |
| Cc1ccc2c(c1)c(=O)c(C(=O)c1ccc3c(c1)OCO3)cn2Cc1cccc(F)c1 | inconclusive: 35.5 µM [activator, partial curve] | – |
| O=C(NCCc1csc(-c2ccc(F)cc2)n1)c1cccs1 | active: 11.2 µM | – |
| CC(C)Oc1ccc2c(=O)c(-c3ccccc3)coc2c1 | inconclusive: 4.47 µM [activator, full curve, poor fit] | – |
| CCCCC(=O)NC(c1cccc([N+](=O)[O-])c1)c1ccc2cccnc2c1O (stereo not given) | inconclusive: 28.2 µM [activator, single point] | – |
| O=S(=O)(CCSc1nc2ccccc2s1)c1nc2ccccc2s1 | active: 2.51 µM | – |
| COc1ccc2[nH]c(=O)c(CN(Cc3ccco3)C(c3nnnn3Cc3ccccc3)C(C)C)cc2c1 (stereo not given) | inactive | – |
| COc1ccc(CN(CC2CCC(C(=O)O)CC2)C(=S)Nc2ccccc2C)cc1 (stereo not given) | – | inactive: -9.68% [at 0.397 µM] |
| Cc1ccc2nc3ccc(N4CCN(C)CC4)nn3c(=O)c2c1 | inactive | – |
| CCc1ccc2oc(-c3cccc(NC(=O)c4cc5ccccc5o4)c3)nc2c1 | inconclusive: 3.55 µM [activator, partial curve] | – |
| CCC1(C)Cc2ccccc2-c2nc(SCC(N)=O)[nH]c(=O)c21 (stereo not given) | inconclusive: 5.62 µM [activator, single point] | – |
| N#Cc1ccc(NC(=O)COC(=O)C2CCC2)cc1 | inconclusive: 25.1 µM [activator, partial curve] | – |
| CCc1nc2ccc(C(=O)Nc3cc(-c4ccccc4)ccc3OC)cn2c1N(CC)CCN(C)C | inactive | – |
| CC(C)CNC(=O)/C=C/C=C/c1ccc2c(c1)OCO2 | inconclusive: 8.91 µM [activator, partial curve] | – |
| Cc1ccc(CN2CCCn3nc(C(=O)NCc4cc(C)ccc4C)cc3C2=O)cc1 | inconclusive: 15.8 µM [activator, partial curve] | – |
| O=C(COC(=O)Cc1ccc(Cl)cc1)NCCc1ccccc1 | inconclusive: 22.4 µM [activator, partial curve] | – |
| CC1(C2CC2)NC(=O)N(CC(=O)Nc2ccccc2F)C1=O (stereo not given) | inactive | – |
| Cc1ccc(CNC(=O)c2cnc3c(-c4ccccc4)c(C)nn3c2C)o1 | inconclusive: 28.2 µM [activator, partial curve] | – |

| Structure (SMILES) | Potency | growth rescue (activation) |
| --- | --- | --- |
| Cc1ccc(N2CCN(C(=O)c3c(C)oc4ncnc(N5CCOCC5)c34)CC2)c(C)c1 | inconclusive: 14.1 µM [activator, partial curve] | – |
| O=C(O)c1[nH]c2ccccc2c1C(c1cccc(O)c1)c1c(C(=O)O)[nH]c2ccccc12 | inactive | – |
| CCc1nc(Nc2ccc3c(c2)OCCO3)c2oc3ccccc3c2n1 | inconclusive: 2.82 µM [activator, full curve] | – |
| COc1ccc(CNC(=O)c2ccc(CSc3nc4ccncc4n3Cc3ccccc3F)cc2)cc1 | inactive | – |
| Nc1ccc(C#Cc2ccc3oc4ccccc4c(=O)c3c2)cc1 | inconclusive: 5.01 µM [activator, partial curve] | – |
| Cc1nn(-c2ccccc2)cc1/C=N/NC(N)=S | inconclusive: 11.2 µM [activator, partial curve, poor fit] | – |
| CCC1=C(c2ccc(OC)cc2)CCC(C(=O)O)C1C (stereo not given) | inconclusive: 20 µM [activator, single point] | – |
| O=C(Nc1nc(-c2cccs2)c(C(=O)C(F)(F)F)s1)c1ccco1 | active: 14.1 µM | – |
| O=C1CC(N2CCOCC2)C(=O)N1c1ccc(Cl)cc1 (stereo not given) | inconclusive: 14.1 µM [activator, single point] | – |
| Cc1ccc(C(=O)n2c(-c3ccccc3)cnc2SCC(=O)Nc2ccc(C)cc2C)cc1 | inactive | – |
| COc1ccc(NC(=O)C(C)n2nc(-c3cc(C)ccc3C)c3c(c2=O)CCCC3)cc1 (stereo not given) | inactive | – |
| COc1cccc(NC(=O)COC(=O)c2ccc3c(c2)OCO3)c1 | inconclusive: 8.91 µM [activator, partial curve] | – |
| O=C1[C@H]2[C@@H]3CCN1CCC[C@@H]2C=C[C@@H]3c1ccc(Br)cc1 | inconclusive: 35.5 µM [activator, partial curve, poor fit] | – |
| CC(NNC(=S)N1CCN(c2ccccn2)CC1)c1nccc2ccccc12 (stereo not given) | – | inconclusive: -89.4% [activator] |
| ClCc1nc2ccccc2n1Cc1ccccc1 | inconclusive: 11.2 µM [activator, partial curve] | – |
| Cc1ccc(C)c(-n2cc(-c3ccccc3)nc2SCC(=O)Nc2ccccc2)c1 | – | inconclusive: 32.7% [activator] [at 9.22 µM] |
| O=c1c(-c2nn[nH]n2)coc2ccc(Cl)cc12 | inconclusive: 14.1 µM [activator, single point] | – |
| CCC(C)c1ccc(NC(=S)N2CCN(C(=O)C3CCCO3)CC2)cc1 (stereo not given) | inconclusive: 7.08 µM [activator, full curve, poor fit] | – |
| Sc1nnc(-c2ccc(Cl)cc2)n1Cc1ccccc1 | inconclusive: 35.5 µM [activator, partial curve] | – |
| CC1Cc2ccccc2N1C(=O)CN1C(=O)COc2ccccc21 (stereo not given) | inconclusive: 35.5 µM [activator, single point] | – |
| COc1ccc(CC(=O)N2CCN=C2SCc2cccc([N+](=O)[O-])c2)cc1 | inconclusive: 15.8 µM [activator, single point] | – |
| CCc1cc(C(=O)NNC(=S)NC2CCCCC2)cs1 | inconclusive: 11.2 µM [activator, partial curve] | – |
| Cc1ccc(C(=O)NC(=S)Nc2ccc3c(c2)OCCO3)c(C)c1 | inconclusive: 25.1 µM [activator, single point] | – |
| Cc1cccc(NC(=O)c2ccc([N+](=O)[O-])o2)c1C | inconclusive: 35.5 µM [activator, single point] | – |

| Structure (SMILES) | Potency | growth rescue (activation) |
| --- | --- | --- |
| CCCCc1ccc(/C=C(\C#N)C(N)=S)s1 | active: 20 µM | – |
| Cc1ccc(S(=O)(=O)c2nc(-c3cccs3)oc2SC(C)C)cc1 | inactive | – |
| c1ccc(OCCOc2ccccc2-c2nnco2)cc1 | inactive | – |
| CCOC(=O)c1ccc(NC(=O)c2cn(-c3ccccc3)nc2-c2ccc(OC)c(OC)c2)cc1 | inconclusive: 14.1 µM [activator, single point] | – |
| O=C(Nc1cccc(-c2nc3cccnc3s2)c1)c1cccc(Br)c1 | active: 6.31 µM | – |
| COc1ccc(OC)c(NC(=O)CN(C)S(=O)(=O)c2ccc3nc(C)sc3c2)c1 | inconclusive: 31.6 µM [activator, single point] | – |
| CCNC(=S)N(CCc1ccc(OC)c(OC)c1)Cc1cc2cc(OC)ccc2[nH]c1=O | – | inactive: -7.28% [at 9.22 µM] |
| Cc1ccccc1C(=O)Nc1ccccc1C(=O)NCc1ccccc1 | active: 11.2 µM | – |
| Cn1cccc1-c1nc2ccccc2n1Cc1ccccc1 | inactive | – |
| O=c1cc(CSc2ccc([N+](=O)[O-])cc2)nc2sccn12 | – | inactive: 14.8% [at 9.22 µM] |
| Cc1cccc(CC(=O)Nc2cc(C)c3c(=O)oc4ccccc4c3n2)c1 | inconclusive: 35.5 µM [activator, partial curve, poor fit] | – |
| O=C(/C=C/c1c(Cl)nc2ccccn12)N1CCN(c2ccc(F)cc2)CC1 | inconclusive: 5.62 µM [activator, full curve] | – |
| COc1ccc(C2CCCN2C(=S)Nc2ccc(C)cc2Cl)cc1OC (stereo not given) | inconclusive: 25.1 µM [activator, single point] | – |
| Cc1cccc(C)c1-n1nnnc1C1(C)CCC(=O)N1Cc1cccc(C(F)(F)F)c1 (stereo not given) | inconclusive: 5.62 µM [activator, full curve] | – |
| CCOC(=O)CCCCCC(=O)Nc1ccc2c(c1)C(=O)N([C@@H](C)CO)C[C@H](C)[C@H](CN(C)C(=O)NC(C)C)OCCCC[C@H](C)O2 | inactive | – |
| CC(Cc1cccs1)NC(=S)Nc1ccc(Cl)cc1 (stereo not given) | – | inactive: -13.5% [at 0.397 µM] |
| Cc1nc(SCCc2ccccc2)[nH]c(=O)c1C | inconclusive: 11.2 µM [activator, partial curve] | – |
| O=c1[nH]c(CN2CCc3ccccc32)nc2scc(-c3cccs3)c12 | inconclusive: 11.2 µM [activator, partial curve] | – |
| O=c1[nH]c(CSc2ccccn2)nc2c1cnn2-c1ccccc1 | inconclusive: 15.8 µM [activator, single point] | – |
| Cc1ccc(NC(=S)NCc2cccs2)c(C)c1 | inconclusive: 20 µM [activator, partial curve] | – |
| COc1cc(NS(=O)(=O)c2ccc(C)cc2)c2ncccc2c1 | active: 11.2 µM | – |
| Cc1ccccc1Nc1nc2nonc2nc1N1CCOCC1 | inconclusive: 12.6 µM [activator, partial curve, poor fit] | – |
